Several values for one entry are separate records, joined by “and”; a condition that tells them apart may be missing. Identical values can stand only once.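 Results reflect a 48-hour exposure of cells in 96-well plates to compound at five concentrations. GI50 is the concentration that inhibits growth by half. The concentration for full growth arrest is given as TGI.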
System: NCI-H322M lung
Test: NCI tumour cell line growth inhibition, 48 h

Compound | TGI | GI50
O=C(O)c1cccc(N=Nc2c(S(=O)(=O)O)ccc3c2C(=O)c2ccccc2C3=O)c1O | > 100 µM | 
CCCCCCCCCCCCCC[S+](C)C | > 10 µM | 
Cn1ccnc1C(=O)/C=C/c1ccccc1 | 20.4 µM | 7.01 µM
O=C1[C@@H]2[C@@H](c3ccccc3)[C@]2(Cl)C(=O)[C@H]2[C@H](c3ccccc3)[C@@]12Cl | > 100 µM | 
CC(=O)OC(CCC1(C)OC1COc1ccc(CCNC(=O)c2ccccc2)cc1)C(C)(C)OC(C)=O (configuration not stated) | > 100 µM | 
O=C(NP(=O)(N1CC1)N1CC1)c1cc(I)ccc1I | > 100 µM | 
CC1(C)Cc2cc(C(=O)O)c3c(c2C1=O)COCC3 | > 100 µM | 
COc1ccc2sc(-n3nc4ccccc4c3Nc3nc4ccc(OC)cc4s3)nc2c1 | 7.83 µM | 
N#C/C(=C\NC(=S)c1ccncc1)c1nc2ccccc2s1 | > 100 µM | 
CC1OC2(CC(OCc3ccccc3)C1OCc1ccccc1)OCCO2 (configuration not stated) | > 100 µM | 
CC1OC(O[C@H]2C3C=CO[C@@H](OC4OC(CO)C(O)C(O)C4O)C3[C@@]3(COC(=O)/C=C/c4ccc(O)cc4)O[C@@H]23)C(O)C(O)C1O (some centres not stated) | > 100 µM | 
O=C(/C=C/c1ccc(/C=C/C(=O)c2ccc(O)cc2)cc1)c1ccc(O)cc1 | > 100 µM | 
CCc1cccc(C(C)C)c1NC(=O)C(=O)C(CC(=O)Nc1ccc(Cl)c(Cl)c1)C(=O)OC (configuration not stated) | > 100 µM | 
CC(C)C1=CCC2C(=C1)CCC1C(C)(C(=O)O)CCCC21C (configuration not stated) (tested in a mixture with another compound) | > 100 µM | 
CCSc1cc(=O)n(C)c(=O)n1C | > 100 µM | 
COc1cc(C2=C(C#Cc3ccccc3)COC2=O)cc(OC)c1OC | > 100 µM | 18.5 µM
CCCCN1C(=O)c2c(-c3sccc3N)sc(-c3sccc3N)c2C1=O | > 100 µM | 
Cc1ccc(-n2[nH]nc(C#N)c2=O)cc1 | > 100 µM | 
Nc1nc(N)c2ncn(Cc3ccccc3CCl)c2n1 | > 100 µM | 
COc1ccc(Cn2cc3c(c2-c2ccc(OC)cc2)CCc2cnoc2-3)cc1 | > 100 µM | 0.596 µM
CN(C)c1nncc2[nH]cnc12 | > 100 µM | 
O=CC[C@H]1CCc2ccccc2C12CCC(=O)CC2 | > 100 µM | 
Cc1ccc(OC2CC(n3cnc4ncnc(Cl)c43)OC2Oc2ccc(C)cc2)cc1 (configuration not stated) | 51.5 µM | 
Cc1cc(C)nc(SC(C)C(=O)N/N=C/c2ccc(OCc3ccccc3)cc2)n1 (configuration not stated) | > 100 µM | 
CCOC(=O)c1ccc(C(=O)/C(C(C)=O)=C2\CCCN2C)n1C | > 100 µM | 

Compound | TGI | GI50
O=C(/C=C/c1cc([N+](=O)[O-])ccc1Cl)c1ccccc1 | > 100 µM | 26.9 µM
CN(C)c1ccc(C(Cc2ccc3ccccc3n2)Cc2ccc3ccccc3n2)cc1 | > 100 µM | 6.28 µM
CC(C)(C)c1cc2c3c(c1)C(C(F)(F)F)(C(F)(F)F)O[Te]3(C)OC2(C(F)(F)F)C(F)(F)F | > 100 µM | 
O=C(Nc1nc2ncn(CCNCc3ccccc3)c2c(=O)[nH]1)c1ccccc1 | > 100 µM | 
COC(=O)CCCC(=O)O | > 100 µM | 
Cn1/c(=N\S(=O)(=O)c2ccccc2)n(S(=O)(=O)c2ccccc2)c2ccccc21 | > 100 µM | 
CN1CCC(CN2c3ccccc3Sc3ccccc32)CC1 | 28 µM | 
Nc1[nH]c(=S)nc2snnc12 | > 100 µM | 
C1=CC=C2NCCCNC3=CC=CC=CC3=NCCCN=C2C=C1 | > 100 µM | 
O=[N+]([O-])c1c(Br)sc(Br)c1[N+](=O)[O-] | 30.9 µM | 15.7 µM
Fc1ccccc1C1CC(c2ccc3ccccc3c2)=Nc2ccccc2S1 (configuration not stated) | > 100 µM | 
Fc1ccc2nc3n(c2c1)C(c1c(Cl)cccc1Cl)SC3 (configuration not stated) | > 100 µM | 
CC1OC(OC2C(O[C@H]3CC[C@@]4(C)C(=CC[C@H]5[C@@H]6C[C@@H]7O[C@]8(CC[C@H](C)CN8)[C@@H](C)[C@@H]7[C@@]6(C)CC[C@@H]54)C3)OC(CO)C(O)C2OC2OC(CO)C(O)C(O)C2O)C(O)C(O)C1O (some centres not stated) | 37.9 µM | 
O=C1/C(=C/c2ccc(Cl)cc2)N=C(c2ccccc2)N1CCc1cccs1 | > 100 µM | 42.2 µM
CCC(=O)c1c(NOC2OC(COC(C)=O)C(OC(C)=O)C(OC(C)=O)C2OC(C)=O)nc(OC)n(C)c1=O (configuration not stated) | > 100 µM | 
CN1CCN(c2ccc3nc(-c4ccc5nc(-c6ccc(OCCC(C)(C)C)cc6)[nH]c5c4)[nH]c3c2)CC1 | 23.8 µM | 11.6 µM
COc1cc(C2C(C(=O)O)=C(COC(C)=O)Oc3cc4c(cc32)OCO4)cc(OC)c1OC (configuration not stated) | > 100 µM | 
Cc1noc2nnn(-c3ccc(Cl)cc3)c(=O)c12 | 24.2 µM | 
COc1ccc(OC)c(CC2CCc3nc(N)nc(N)c3C2)c1 (configuration not stated) | > 100 µM | 
CC1C[C@@H]2C(=O)NC(=O)[C@@H]2c2c1c1ccccc1n2C (some centres not stated) | > 100 µM | 
COc1ccc(Nc2c3ccccc3nc3ccccc23)cc1 | 16.9 µM | 3.85 µM
CCOC(=O)C(O)(NC(=O)c1ccccc1F)C(F)(F)F (configuration not stated) | > 100 µM | 
CCN(C(=O)c1cc(F)ccc1Oc1cncnc1N1CC2(CCN(CC3CCC(NS(=O)(=O)CC)CC3)CC2)C1)C(C)C (configuration not stated) | > 100 µM | > 100 µM
COc1cc(OC)c(C2CC=Cc3c(OC)cc(OC)c(OC)c32)cc1OC (configuration not stated) | > 100 µM | 
Cc1cccc2c(=O)c3c(sc12)c(NCCNCCO)nc1ccccc13 | 2.92 µM | 1.53 µM

Compound | TGI | GI50
N#CCCN(CCC#N)c1ccc(/C=C2\N=C(c3ccccc3)N(NC(N)=S)C2=O)cc1 | > 100 µM | 
CC1(C)[C@@H](O[C@@H]2OC[C@@H](O[C@@H]3O[C@H](CO)[C@@H](O)[C@H](O)[C@H]3O[C@@H]3OC[C@@H](O)[C@H](O)[C@H]3O)[C@H](O)[C@H]2O[C@@H]2O[C@H](CO)[C@@H](O)[C@H](O)[C@H]2O)CC[C@]2(C)[C@H]3CC[C@]45OC[C@@]6(CC[C@](C)(C=O)C[C@H]64)[C@H](O)C[C@@]5(C)[C@]3(C)CC[C@@H]12 | 1.54 µM | 0.806 µM
COC(=O)CCC(=O)CC(=O)C(=O)Nc1c(Cl)cc([N+](=O)[O-])cc1Cl | > 100 µM | 
COC1OC(COCc2ccc(Cl)cc2)C(OCc2ccc(Cl)cc2)C1N=[N+]=[N-] (configuration not stated) | > 100 µM | 
CC1C2CC(C(S(=O)(=O)N3CCOCC3)/C2=N\O)C1(C)C (configuration not stated) | > 100 µM | 
CC(=O)c1ccc(NC(=O)C(=O)Nn2c(=S)[nH]c3ccccc3c2=O)cc1 | > 100 µM | 
COc1cc(/C=C/C(=O)c2ccc(NC(=O)CN3CCN(c4cc5c(cc4F)c(=O)c(C(=O)O)cn5C4CC4)CC3)cc2)cc(OC)c1OC | 4.19 µM | 0.505 µM
CCOC(=O)c1c(N2CCCC2)[nH]c(=O)c(C(c2ccco2)c2c(O)c(C(=O)OCC)c(N3CCCC3)[nH]c2=O)c1O | > 100 µM | 
CN1c2ccccc2C(C)(C)C12C=Cc1cc(O)ccc1O2 (configuration not stated) | 13 µM | 3.21 µM
O=C(/C=C/c1ccc(O)c(O)c1)c1cc(O)cc(O)c1 | 28.6 µM | 
O=S(=O)(O)ON=C1c2ccccc2-c2ccccc21 | > 100 µM | 
C/C(=C/C(=O)Nn1c(Cc2ccccc2)n[nH]c1=O)C(=O)O | > 100 µM | 
CCOC(=O)Cc1nc2sc(S(N)(=O)=O)nn2c1Br | > 100 µM | 
CN(C)c1ccc(Nc2cc(-c3cccc(OC(F)(F)F)c3)nc3ccc(N4CCCC4)cc23)cc1 | 4.12 µM | 1.97 µM
O=C1/C(=C/c2cccc(Br)c2)CSC/C1=C\c1cccc(Br)c1 | 22.3 µM | 
Cc1cc(NC[C@H](O)[C@H](O)[C@H](O)CO)c(Sc2cc(=O)[nH]c(=O)[nH]2)cc1C | > 62.5 µM | 
O=C(CCC(=O)C(C(=O)c1ccccc1)c1ccccc1)Nc1cccc(C(F)(F)F)c1 (configuration not stated) | > 100 µM | 
O=C(Cn1ccnc1[N+](=O)[O-])c1ccc(F)cc1 | > 100 µM | 
CN(C)CCNC(=O)c1cccc2c1nc(-c1ccccc1)c1ccccc12 | 17.5 µM | 
Cc1cc(C)c2c(n1)S(=O)(=O)N(CCCN1CCN(c3cccc(C(F)(F)F)c3)CC1)c1c-2nn(C)c1C | > 100 µM | 
CCc1ccc2nc(-c3ccc(O)cc3)sc2c1 | 38.3 µM | 
COc1cc(/C=C/C(=O)c2c(C)nc3ccccc3c2C)ccc1OCCCOc1cc2c(cc1OC)C(=O)N1CCC[C@H]1C=N2 | 0.5 µM | 0.074 µM
COc1cc2c(cc1Nc1nc(Nc3ccsc3C(N)=O)c3cc[nH]c3n1)N(C(=O)CN(C)C)CCC2(C)C | 6.1 µM | 1.6 µM
CCOC(=O)C(Cl)(NC(=O)c1c(F)c(F)c(F)c(F)c1F)C(F)(F)F (configuration not stated) | > 100 µM | 
O=C1CCCC/C1=C\c1ccc(Br)cc1 | 42 µM | 

Compound | TGI | GI50
CC(C)[Si](OC1=CCC[C@H]2NC(=O)[C@@H](Cc3ccccc3)[C@@]12C)(C(C)C)C(C)C | 24.5 µM | 
CC(=O)O[C@@H]1C2=C(C)C=C(O2)[C@H]2O[C@]2(C)C[C@H]2C=C(C(=O)O2)[C@H](OC(C)=O)CC1[C@@]1(C)CO1 (some centres not stated) | > 100 µM | 
O=C1C2C3C=CC(C2C(=O)N1COP(=O)(O)O)C1C2C(=O)N(COP(=O)(O)O)C(=O)C2C31 (configuration not stated) | > 100 µM | 
CCC1CN2CCc3c([nH]c4ccccc34)C2C[C@@H]1CC(=O)N(C)C (some centres not stated) | > 100 µM | 
O=C(NCc1ccc(Cn2c(=O)sn(-c3ccccc3)c2=O)cc1)OCc1ccc2c(Br)cc(Br)c(O)c2n1 | 3.02 µM | 1.54 µM
O=[N+]([O-])c1cccc(C2ON2C2CCCCC2)c1 (configuration not stated) | > 100 µM | 
CC(C)C(C)C(C)(C)P(C)(C)=O (configuration not stated) | > 100 µM | 
CCn1cc(C(=O)O)c(=O)c2cc3c(cc21)S(=O)(=O)CC3 | > 100 µM | 
N#Cc1c(N)nc(N2CCOCC2)c(C#N)c1-c1cccnc1 | > 100 µM | > 100 µM
CCCCCCCCCc1cccc(N2C(N)=NC(N)=NC2(C)C)c1 | 3.33 µM | 
COc1ccc2c(c1)n([O-])c1ccccc1[n+]2=O | > 100 µM | 23.8 µM and 48.7 µM
Brc1ccc2c([C@H]3CN[C@@H](c4c[nH]c5cc(Br)ccc45)CN3)c[nH]c2c1 | 18.3 µM | 
COc1ccc(/C(C#N)=C/c2ccc(OC)c(OC)c2)cc1 | > 100 µM | 
N#C/C(=C\c1cc(Cl)cc(Cl)c1)c1ccccn1 | > 100 µM | 
COc1ccc(OC)c(/C=C(/C)[N+](=O)[O-])c1 | 14.8 µM | 4.1 µM
Clc1ccc(C2SCc3nc4ccccc4n32)cc1Cl (configuration not stated) | 37 µM | 
Fc1ccc(Nc2nc3nonc3nc2Nc2ccc(F)cc2)cc1 | 10.4 µM | 0.452 µM
CCCCCCCCCCCC1CCCC(C)N1 (configuration not stated) | 29.8 µM and 157 µM | 15.4 µM
CCOC(=O)C1=C(C)N(c2ccc(C)cc2)C2=C(C(=O)N(c3ccccc3)C2c2ccccc2)C1c1ccccc1 (configuration not stated) | > 25 µM | 
CC(C)CCN=C(N)c1ccc(N2CCN(c3ccc(C(N)=NCCC(C)C)cc3)CC2)cc1 | 37.2 µM | 15 µM
C=C(Br)N(CC)CC | > 100 µM | 
COC(=O)c1c(N)n[nH]c1N | > 100 µM | 
CC(=C(C(N)=O)C(N)=O)C1C=C(c2cccs2)CC(c2ccc(Cl)cc2)=C1O (configuration not stated) | > 100 µM | 

— PubChem BioAssay (NCI)
